Here are results for 125 sequences from the supplement of paper PMC10681739.

± gives the standard deviation of the averaged measurements. Over roughly 4,000 sequences, “arbitrary fluorescence units” has its median near 830; the highest 2% begin near 6,500. This part holds few or none of the hits.
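Note: Full-length recombinant human RUNX1 bound to double-stranded DNA microarray spots, detected with an Alexa488-labelled secondary antibody after the anti-RUNX1 primary, read as scanned spot fluorescence.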

The assay concerns the target RUNX1 (UniProt Q01196). As to the kind of experiment: RUNX1 binding intensity (PBM fluorescence), RUNX1 alone (arbitrary fluorescence units); higher = stronger binding. To be noted: RUNX1 concentration 2 nM; ETS1 concentration 0 nM. Here is the method: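 gcPBM on 36-bp genomic-derived probes (partner site mutated) containing one RUNX1 site and no ETS1 site. Recombinant human RUNX1 (2 nM) was incubated alone or with ETS1 (25 nM) and detected by anti-RUNX1 antibody fluorescence. Values are medians over 4 replicate spots (not normalised). The probes sit in constant array flanks that are not printed.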
UniProt Q01196, sequence (Q01196 whole entry): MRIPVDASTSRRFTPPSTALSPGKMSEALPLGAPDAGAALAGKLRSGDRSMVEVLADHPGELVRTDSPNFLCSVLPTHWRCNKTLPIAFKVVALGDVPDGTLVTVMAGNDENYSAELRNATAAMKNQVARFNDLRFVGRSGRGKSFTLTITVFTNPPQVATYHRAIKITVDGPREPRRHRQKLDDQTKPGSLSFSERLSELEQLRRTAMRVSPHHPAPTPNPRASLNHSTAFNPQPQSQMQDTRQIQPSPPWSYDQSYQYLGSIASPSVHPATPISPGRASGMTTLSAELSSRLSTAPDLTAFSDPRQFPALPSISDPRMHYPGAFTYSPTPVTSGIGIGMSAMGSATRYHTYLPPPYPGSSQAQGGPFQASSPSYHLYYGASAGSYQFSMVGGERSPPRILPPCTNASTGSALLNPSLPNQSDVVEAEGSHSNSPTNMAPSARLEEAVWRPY
The sequence AGCGCCACCGCAGTGATGCAAGTCGGCAGTTGTAGT returned an RUNX1 binding intensity of 926.
The value for GGCGCGGGTAAGCCCTGGGACCCTCATGCTGGGGAG was 714; that for CGACCTCCGTCCCTGGGTGGGATCGAACCACCAACC was 1030; that for CTGGCCTCAGGCAGGAGGCAGTTTTGTGGCCCCAGG was 973.
The sequence CGGAGGCTCACCGCGAAGCCTCCTGGGACATGTAGT displayed an RUNX1 binding intensity of 803.
TTTCTCAGGGTGACCGCGTTCCTTCGGCCCAGAGAG came in with an RUNX1 binding intensity of 897.
With CTGCGGGTGACTGAGCGGGGCCAGCCTGAAGGGCGG, the RUNX1 binding intensity came to 790.
The sequence CAGTTCTCAGGCTGCCTCCCTTCACCACAGCTGGCT gave an RUNX1 binding intensity of 1060.
TTGATAGCAAACCACACTCGGCACAGAAAGGAGAAC displayed an RUNX1 binding intensity of 1020.
The sequence CGGGCCCTGTGGTTTCCAACACCCTGTAGGCGGCCT registered an RUNX1 binding intensity of 1070.
The sequence TAGGCAGGCAGGGTGTGCCTATAAGCCACATGAATG returned an RUNX1 binding intensity of 636.
For GGCTGGAAAGGGTCTTGAGAGGAGGTGGTTGCCTTA, the RUNX1 binding intensity worked out at 705.
Under TGCCGGGTCACCACAGGCGCACGTGTTCCAGCAGGG stands 751; under GGGAGGCAGTGTGAAGGGACTTTTGTGGTGAGTGAT, 798.
Under TTTGCACACATGCTGGCCTCCGCCTGACCACCTCCT stands 985.
Turning to CCCTCATCTTCATGCTTCAGGCAGCTGTGGTTTACC, the RUNX1 binding intensity came to 1140.
With TGAGATTAGTGGTTAAGTTGGTGCCGGGTGTCATCC, the RUNX1 binding intensity worked out at 978.
Under ATAAGAATGTGGTTTCCAAAGTTCAGGTTCCTCTTG stands 1890; under GTCAGAAAACACATAGTTGTGTTTAACCTCAGGAAA, 888.
Under GGGGAACGAAAGCTGCTGTCGTTACTGGCGGTTGTA stands 669.
Under TTTCTGATTGTGGTTTCAAATTATTTGCTGTGTTGG stands 3190; under GGGCGAAAGTGCGTCACTATGTCCGACCCGCAGTGC, 778.
Turning to GGGCCCTTCATGTGGCGCCTGCCGAGCTGTGGTTGG, the RUNX1 binding intensity was 730.
The value for TATCACGTTTGCTGCTGCTGCACCGCGACCTCAGCT was 714; that for CTAAGGCTGTGGGGATGGGATGACAGAAAGAGTATC was 806; that for CCTGCGGTACGCCTGGGTCACGCCTCTTGCGCTAAG was 976.
Consider ATGGGGAACGTGAACTACGGCGGGAACCACAATCGC, for which the RUNX1 binding intensity was 783.
Under TAAATGCTCACCACAACCTGCTGCCTTTTCTACCAG stands 1630; under TCCACAGCCGGTTTCGGCCGGTTCCCACAAGCCCCT, 909.
The value for CTGTTTGCTGCCTTTGCTGTCTGTGACCGCATCAGT was 952.
The value for TCGTGAAAAAGGAGGTGGATAAAGTGGTTACGGCAA was 779.
Consider CCAAACCCACTATCACTAATCATCTTTCTGTCATTC, for which the RUNX1 binding intensity is 1710.
Sequence TAGGTCACCTCCGCAACACAGCAACGGAGGTAGGGT had an RUNX1 binding intensity of 622.
The value for CGGGCGCCCGCAGGCGGTGCTGCCGAATGCCCCGCC was 830; that for GCACTGGAGGAATCTGCTCTCCCTTGCGGCTGGACG was 739; that for CGGCCTTGCGGCATGGGCAGTCTCCGCCGCCATCCA was 841.
Under GCTGTCCATTCCCGAGATGTTAATGCGGGATCTTGC stands 819.
Under CGAGGGAGCCTGAAAGATGGTGGTTACCAGATCTGC stands 686; under CAGTGAACAGTTTTCTGTTCCTGTGGTTTTGACTTT, 1310; under CTCAGCTGAAGAGCGGGCCTCTGGGCCGCAGTGACC, 683.
AGTTGCTAAGGCAATGACTGCCCGCAGCGCCTGGCC gave an RUNX1 binding intensity of 735.
Sequence CATGAGAAACACCCTGCCCAACCACCTGACTACAAG came in with an RUNX1 binding intensity of 1080.
Under CAGTTTGCCCTGGATGTTGACCGCCTTGAAGTCGTA stands 830; under GCGCTGTACTGCGGCTTGTGCCGCTCCCGCGAGAAG, 721.
TGGCCCGCAGCAGTCACGTGGCCGCGCCTCCTCGCA yielded an RUNX1 binding intensity of 678.
For GCTAAGAGCAGGCAATGATCTGGGAACCACCATCAC, the RUNX1 binding intensity worked out at 793.
Under CTATTGTGGTGCCTGTTACCTACAGCAAATGAGACA stands 704.
In turn, TTGAGCGCGGTCTCGCCTCCGCTTGCTCCTCACTCC displayed an RUNX1 binding intensity of 810.
CTGCCTTGCTTTTACGGTCGCCGCGGTCCTCTGCGC displayed an RUNX1 binding intensity of 841.
On to AACACACACGTGGTTTCTCACCACTTGCTGGATGTC, for which the RUNX1 binding intensity stood at 907.
Under GGAGGGGGAGGTGGGCGGCTCTGCGGCCGCCATCTT stands 884.
As for AGTTGCCCGCAGGTCAACACCCAGTTCCCTTCAAAC, the RUNX1 binding intensity turned out to be 867.
The sequence GTTTACCACAGGACTCAAGTCTACATTGCCTGTCTC showed an RUNX1 binding intensity of 1320.
The value for CCCAACCATTCCCGCCACACCTCCAACCCACTGCCG was 1970.
The value for GCTGGTATGGCAGGCAGTTTCTCACCACAGTATACT was 762.
Take AGGGTGTACTCGGGAGTTTCGAGTGGTTGCTTGGTT: the RUNX1 binding intensity is 728.
Under CCATTGGCAACCGCGCTGCGCCAACTTTCGGGTTGT stands 896.
The value for GCACGCCTGTGGGTGCTCATGGGCAATGTAGTTTTT was 657.
Under GGCGGCTGTGGGCGCAAAACCCAAAACTGCCGATGG stands 748.
Sequence GCGCGGCCCTGAAGGGGGTAACCGCTGAGTCTTTGA displayed an RUNX1 binding intensity of 696.
Turning to CCCCTCAATTCCCTCAACCCTTCCCACAAACTGGGA, the RUNX1 binding intensity worked out at 1730.
As to TGGTGGAGCTGCGGCGGGCAATCGGAGATCGGCTAC, the RUNX1 binding intensity was 716.
Under ATGTTATTGTGGCTTCAAATTGCCTCTTGGCAAGCC stands 813; under TGCGCCGGGAGCAAGGGCTCCAAAACCACAGGGCGG, 999; under GCTAGACAGTAAACAGTGAGCTTCTGTGGGCAGGAG, 814.
The value for TGGAGAGCACTGGAAGTGGCCCACAGCCCAGGCCAA was 619.
Under GGAGGGCTCCCTGCCCACCACCACCCACAGCAGCTG stands 934; under GGGGAAGAAGAAGCTGTGTCCGCGGTGCAAGGGGTT, 713.
AAACTACTTTCCATCCTACCAAAACCACACTAAAGA gave an RUNX1 binding intensity of 2070.
In turn, GCCCCGGGAGCTCCTTAAGGAGGACCGTGTGGGTTT returned an RUNX1 binding intensity of 726.
Under CCCGGAGGGTTCCAGGGGTCGGCCTGCGGCGCGTGC stands 1270; under TTGTGCTTGCTGCTCATGAGATTGCTAGCGGTTACT, 659 ± 48; under TGCGCCGCTGCGCCGCAGCCTCCGTAAGACAGGGGA, 722.
AGCGGGAGGCAGTGCTGCAGTAGCCACAGCAGCCTG yielded an RUNX1 binding intensity of 808.
Sequence ACTCTGCGGGCCAAGAAAGGTGACCGGGCTGCCTTC registered an RUNX1 binding intensity of 700.
The sequence TGTGAAGGAATCCATGGTTTCATGTCTGCGGCTCAG gave an RUNX1 binding intensity of 663.
For the sequence CTTAAGCTGCCGCACCATGATGGCGGCAGCCGCAGC, the RUNX1 binding intensity stood at 716.
The value for GGAACAGTAAAAGCCTCCGGCAGCCCCTGCGGGCGG was 696; that for GGATGAACAGAAAGCTAAAGTAAATACCACAGTGAC was 848.
Under CCTCTGAGCTGTGGTAACACCACTGCCTCCACTCCA stands 965; under GCGCAAGGATCAGGTTTGTTGTGGTGTGGGGAGGGG, 804; under GTAAGATTCGTGGTTGAGCTTCTGTTTTACACTTGG, 847.
The value for GTCTGCGGTACCTCGCCACGCCCCCGCCCTTCAGGT was 1890; that for TTTCCTGAGGTTAAACACAACTATGTGTTTTCTGAC was 789.
CGAGGACGCGGTTCCCAGAACTGAAGCAACCTGGGG: the RUNX1 binding intensity stood at 775.
The value for GTGATGGTGGTTCCCAGATCATTGCCTGCTCTTAGC was 838.
Under GGAATCCTACATCCCACAGCCCCTTGCTGAGAAGAG stands 938.
Consider CTCAGCTTGTGGCTCCGGTGTCTCCGTTTTGGGGTT, for which the RUNX1 binding intensity came to 813 ± 92.
Under GCTGCCCACAGCGCTCACCCTCCAGATCCCGGCCGC stands 945.
The value for GGCTTGCGCCGCCACCACTGCCCCTCAACCGCCACG was 916; that for AGAAAGAAAAACCAAAGTGCCTCCAGGCAGTAAACA was 729.
Under TTTGTTGTTCAGGGTGCGAGGCGGCCGCAGCTTCCA stands 936; under CCGCCTTTTCGGAGCGCGGGCGCGCGGTGGCGGGAG, 791; under TTGGCCTGGGCTGTGGGCCACTTCCAGTGCTCTCCA, 668.
On to TGGAAGAGGGCACGAAGTGTTGTGGTCACTCCCACC, for which the RUNX1 binding intensity was determined as 748.
The value for GAGTGTTCCTGGAAAGCTGCGGCGTTGGAGCCGCGC was 837; that for TGGTCTGTGGCTGATATTTACGGGAGATGGGGCGAG was 816; that for CCCCATCCCCCGCATAGGGACCTCCTCTTTATTTAC was 1620.
TTTGTGACTTAACCACACCTACATTGCCCATTTAAG returned an RUNX1 binding intensity of 1300.
Under AGTTGGTTCCTTCAGGTGGGTTTGTGGGCTTGGGGT stands 780.
Under GGTAAACCATGCGGTCGATGGGGAGGATCTGGAGAT stands 1270; under CCATCCAGCAAGCTTATGGTGCGACCGCAGTGTGCC, 918; under AGCTGCAGGGTGTGGTCAGGAGAGGAGGCGAGGCCT, 793.
Sequence CCCCGGCTGTGGGGCTCTGGGAATCGGAGGCTAGCC had an RUNX1 binding intensity of 685.
The sequence CATGAAAACCAACAAGCCTGGTCTCCTCTGCGCAGC returned an RUNX1 binding intensity of 759.
The value for TCAGAACCAGAAAACTGAAGGCGGTTACTCCACATA was 715.
Under CCGAAGAGCAAGCTCCACAGGACCTCCGCGGTCAGC stands 749; under CATCTGCGTACGGCACCCAGGAGGCTCGTGGTCCGC, 838; under CTGGGCCTCCATTCCTCCTCCCACAGCCATATGCGA, 987.
The value for GCCAGGGCAGCAAGTTGCTAACCGCCCCAGAGCAGG was 766; that for GCCCAGGCTGCGGGATGGGGTCATTTGCTGCCGCCT was 754.
For CCCGGGGGCAGGCAATGTCGCCTTACCCACAGCCTT, the RUNX1 binding intensity was 914.
Regarding GACTGGGAACGAAGGGGAGGCGGCAACCACCCTTCA, the RUNX1 binding intensity stood at 1450.
Under ACACCGTTCATGAAGACAAAGCCACACCTCACACCA stands 985; under ACCCGTATGTCGTTGGGCAGGAACTGCGGTGAGGGC, 831.
AACCCAGGCTCCCTGACTCGCGGTCTTGTTATCAGT: the RUNX1 binding intensity was 778.
Under TGGAACCGCTGCGTTAACCCAGCCCCGTAAATAACG stands 827; under CCGTGTGCTGTGGGTTTTGGGGACAGAAAGCAAGCT, 912.
Under TTGCTTTTTGAGGTTTGTATTTACTGTGTGAGCTGT stands 1320; under CGTTACCACCCTCTTAAAGGAGCCCATGAAGGAGGC, 988; under CCCTCTGAGACACGATTTGCTTCCCACACAAGGCTA, 1270 ± 100.
Under CCAGTGCAGAAACGTCCCTCCTGCCGCAGCTTTGTC stands 913.
Sequence TGGGGGCCGAAGCCTAAACCCCTCCCGCAGCCAGTC showed an RUNX1 binding intensity of 752.
Turning to CTTGCGGCCTCGCGCCATGGGCAGTCTCCGCCGCCA, the RUNX1 binding intensity is 774.
The sequence ACTCCCCGTGGTAACCTTGTTCATTCGCTGAAGCCC displayed an RUNX1 binding intensity of 1190.
